In PubChem BioAssay AID1508624 (National Center for Advancing Translational Sciences (NCATS), 2021):
Screen size: about 48,000 compounds; about 120 (0.25%) were called active. About 4% were inconclusive and are not listed. Calls come from the whole dose curve; as a rule, active = well fitted activation curve with a large enough effect; inconclusive = small, poorly fitted or top-dose-only effect, or another doubt; inactive = no such curve, though single readings can be large or run the other way. This is one part of the list.

Experiment: Primary qHTS for Identification of Small Molecule Activators of Huntingtin-Antisense Promoter Activity; note: nearly all actives have a fitted effect of over 55% in size
Settings: HEK293 HTT-AS promoter firefly luciferase reporter, 24 h; series mostly up to 57.5 µM; activity change, positive = activation: at the top concentration
How it was run: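 Luminescence was read after Dual-Glo reagent and a 10 min room-temperature incubation. Values were normalized to vehicle (0% activity) and zero RLU (-100% activity). Reporter HEK293 cells had been exposed to compounds (up to 57.5 uM final) for 24 h.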

Activity change, positive = activation, inactive:
COc1ccc(NC(=O)CSc2ncc3c(n2)-c2cc(Cl)ccc2N(Cc2ccccc2F)S3(=O)=O)cc1 -7.35%
Cc1cc(C)c2c(=O)cc(C(=O)Nc3sc4c(c3C(=O)NCc3ccccc3)CCCC4)oc2c1 -10.4%
COc1ccc(C2=NS(=O)(=O)N(C)C(C(=O)Nc3cc(C)ccc3O)=C2)cc1OC -25.3%
Cc1nc(N2C(=O)c3oc4ccccc4c(=O)c3C2c2ccccc2F)sc1C (configuration not stated) -3.98% [at 11.5 µM, percent change from vehicle, -100% = no light]
COc1cccc(N2CCN(S(=O)(=O)c3cc(Br)cc4c3N(C(=O)C3CC3)CC4)CC2)c1 -7.78%
Cc1cccc(N2C(=O)CSC23C(=O)N(Cc2cccc(F)c2)c2ccccc23)c1 (configuration not stated) -34.5%
CN1CCN(C(CNC(=O)C(=O)Nc2ccccc2)c2ccc3c(c2)OCO3)CC1 (configuration not stated) -4.86%
CCOC(=O)c1c(C)n(-c2ccccc2)c2ccc(OC(=O)c3ccccc3)cc12 -70.7%
Cc1cccc(-c2noc(CN(C(=O)COc3ccc(C(C)C)cc3)C(C)C)n2)c1 -30.4%
Cc1ccc(C)c(CSc2nc3ncccc3[nH]2)c1 -11.8%
Cc1c(CC(=O)NCCc2ccccc2F)c(=O)oc2c(C)c3occ(C(C)(C)C)c3cc12 -29.9%
COc1cccc(N2CCN(C(=O)c3ccc4c(=O)n(CCc5ccccc5)c(=O)[nH]c4c3)CC2)c1 -26.2%
COc1ccc(NC(=O)CSc2cn(CC(=O)N3CCOCC3)c3ccccc23)cc1OC -7.15%
COc1ccccc1CNS(=O)(=O)c1cc(C(=O)Nc2cccc(C(F)(F)F)c2)ccc1F -46.9%
CC(C)COC(=O)/C(C#N)=C\c1ccc(-c2ccccc2Cl)o1 30.9%
Cc1cccc(OCC(=O)Nc2c(C)ccc3nsnc23)c1C 0.0573%
COc1ccc(-c2cc(C(=O)NCc3cc(OC)c(OC)c(OC)c3)[nH]n2)cc1 -11.3%
CCc1ccc(S(=O)(=O)c2nnn3c2nc(N2CCC(C)CC2)c2cc(Cl)ccc23)cc1 0%
Cc1ccc(C)c(NC(=O)CCN2C(=O)c3ccccc3Sc3ncccc32)c1 -17%
O=C(CSc1ncc(S(=O)(=O)c2ccc(Br)cc2)c(=O)[nH]1)NCc1ccc(Cl)cc1 -6.54%
O=C(Nc1ccccc1)C(Cc1ccccc1)N1Cc2ccccc2C1=O (configuration not stated) 0.0452%
CCOc1ccc(-c2nc(CSCC(=O)N3CCN(c4cccc(C(F)(F)F)c4)CC3)c(C)o2)cc1 -51.8%
Cn1c(C(=O)NCc2cccc(Cl)c2)cc2oc3ccccc3c21 -11.1%
CC(=O)c1ccc(N2CCN(C(=O)CCCn3c(=O)[nH]c4ccsc4c3=O)CC2)cc1 -8.29%
C=C(C)[C@@H]1CC[C@]2(C(=O)O)CC[C@]3(C)[C@H](CC[C@@H]4[C@@]5(C)CC[C@H](O)C(C)(C)[C@@H]5CC[C@]43C)[C@@H]12 -16.5%
COCCCNC(=O)c1ccc(Cn2c(=O)c3cccn3c3cccnc32)cc1 -29.5%
CCC(=C(CC)c1ccc(O)cc1)c1ccc(O)cc1 -47%
COc1ccccc1CCNC(=O)C1CCN(c2nnc(C)c3c(C)n(-c4ccc(C)cc4)nc23)CC1 -13.5%
O=[N+]([O-])c1ccc(O)c(-c2ccnc3cc(-c4ccccc4)nn23)c1 -78.4%
Cc1ccc(Cn2c(CN3CCN(c4cccc(Cl)c4)CC3)nc3c2c(=O)n(C)c(=O)n3C)cc1 -8.54%
Cc1ccc(CNC(=O)Cn2c3ncccc3c(=O)n2-c2ccc(C)cc2)cc1 -8.54%
CC(C)c1cc(-c2nc(-c3cccc(Cl)c3)no2)n[nH]1 25.1%
COc1ccccc1N1CCN(c2cc(C)nc3nncn23)CC1 -22.5%
COc1ccc(C)c2sc(N3CCN(C(=O)c4ccco4)CC3)nc12 -27.2%
CCOc1ccc(CNC(=O)CSc2c3c(nc4ccc(Cl)cc24)CCCC3)cc1 -6.55%
Cc1nn2c(=O)cc(COC(=O)c3ccc(NC(=O)COc4ccccc4F)cc3)nc2s1 -10.9%
Cc1nc2c(c(C)nn2C(C)(C)C)c(C)c1CCC(=O)Nc1ccc(F)cc1 -19.5%
Cc1ccc2oc(C(=O)Nc3sc4c(c3C(=O)NCc3ccco3)CCC4)cc(=O)c2c1 7.4% [at 11.5 µM, percent change from vehicle, -100% = no light]
CCSc1nc2ccccc2c(OCc2cc(C(=O)OC)ccc2OC)c1C(=O)OC -40.9%
COC(=O)c1c(C)sc(-c2c(-c3ccc(OC)c(F)c3)[nH]c3c2c(=O)n(C)c(=O)n3C)c1O -3.51%
CC(C)C(=O)Nc1nnc(S(=O)(=O)N2c3ccccc3CC2C)s1 (configuration not stated) -7.74%
CCCOc1cccc(C(=O)Nc2cccc(NC(=O)c3ccc(Cl)cc3Cl)c2)c1 -1.47%
Cc1ccc(C(C)C)c(OCC(=O)Nc2ccc(O)c(-c3nc4cc(Cl)ccc4o3)c2)c1 -3.76%
CCOC(=O)c1c(-c2ccccc2)oc2ccc(OCc3cccc(Br)c3)cc12 -20.9%
O=C(Cn1cc(C(=O)c2cccs2)c2ccccc21)Nc1ccc(Br)cc1 -45.4%
O=C1CCSC2(C(=O)N(Cc3ccc(F)cc3)c3ccccc32)N1c1cccc(F)c1 (configuration not stated) -24.4%
CCN(c1cccc(C)c1)S(=O)(=O)c1c(C)nc2sc(C)cn2c1=O -23.6%
COc1cccc(C(c2sc3nc(-c4ccco4)nn3c2O)N2CCN(C)CC2)c1 (configuration not stated) -0.757%
COc1ccc(CNC(=O)CN(C)S(=O)(=O)c2ccc3c(c2)c(=O)n(C)c(=O)n3C)cc1 -11.8%
CCS(=O)(=O)Nc1ccc(-c2cn3c(C)csc3n2)cc1 -49.3%
COc1ccc(C(=O)Oc2cc(-c3ccc(OC)c(OC)c3)cc(=O)c3c(C)oc(C)c23)cc1 -18.5%
NC(N)=Nc1nc(CSCCC(N)=NS(N)(=O)=O)cs1 -26.7%
CSc1nn(CC(=O)Nc2cc(C)ccc2C)c(N)c1S(=O)(=O)c1ccccc1 -38.9%
Cc1ccc2c(=O)cc(C(=O)Nc3c(C(=O)c4ccc(F)cc4)oc4ccccc34)oc2c1C -3.07%
COc1ccc(NC(=O)CC(C)S(=O)(=O)c2cc3c(cc2C)NC(=O)CO3)cc1OC (configuration not stated) -3.97%
O=C(Nc1nnc(S(=O)(=O)N2CCCCCC2)s1)c1ccc(Cl)cc1 -19.4%
COc1ccccc1CNC(=O)C1CCN(c2nnc(C)c3c(C)n(-c4ccccc4)nc23)CC1 -7.89%
